± gives the standard deviation. The entries are a selection whose mix differs from that of the whole data set.

This assay deals with MIWI (PIWIL1) piRISC loaded with piRNA #1 (30 nt). Briefly: pre-steady-state target cleavage rate (min^-1); MIWI and MILI are mouse PIWI proteins and EfPiwi is from a freshwater sponge; tags in brackets are library labels; higher = faster piRNA-guided slicing of the target. Conditions: guide: piRNA #1 5'p-UGAGGUAGUAGGUUGUAUAGUAUCCAGAGG; auxiliary factor: 500 nM mouse GTSF1. Put shortly:
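Active affinity-purified piRISC (1 nM) loaded with one synthetic guide was mixed with a transcribed, DNA-blocked target RNA library (0.1 nM), with or without 500 nM GTSF1 partner protein, in HEPES–potassium acetate buffer at 33 °C for 0–8 or 0–960 min. Uncleaved targets were sequenced, normalised to depth and to weakly complementary targets, and pooled across three trials, with k3 capped at 0.0001 min^-1. The pre-steady-state cleavage rate was determined with a burst-and-steady-state fit.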
Take CCUCUCGAUACUAUACAACCAACUACCUCA: the “pre-steady-state target cleavage rate” value stood at 0.166 ± 0.02.
For the sequence GGAGAGGAUACUAUACAACCUAUCUACCUCA, the “pre-steady-state target cleavage rate” value amounted to 0.27 ± 0.025.
For GGAGACCUAUGUAUACAAGCUAGUACCUCA the value was 0.0118 ± 0.0023; for GGAGAGGAUACUAUACAACGUACUACCUGA, 0.231 ± 0.037.
For CCUCAGGAUACUAUACAACGUACUACCUCA the value was 0.78 ± 0.041.
For CCUCUGGAUACUAUACAACGUUCUACCUCA the value was 0.156 ± 0.016.
With GGAGACCUAUGUAUACAUCCUACUACCUCA, the “pre-steady-state target cleavage rate” value stood at 0.0576 ± 0.0082.
For GGAGACCUAUGAUAUGACCCUACUACCUCA the value was below 0.0001; for GGAGACGAUUCUAUACAACCUACAACCUCA, 0.953 ± 0.059; for CCUCUGCAUACUAUACAUCCUACUACCUCA, 1.81 ± 0.11.
For GGUCUGGAUUCUAUACAAGCUACUACCUCA the value was 1.17 ± 0.054.
For GGAGACGAUACUAUACAACCUACAACCACA the value was 0.699 ± 0.18; for CCUCUGGAUACUAAACAACCUACUACCACA, 1.76 ± 0.12; for GGAGACCUAACUACUACAACCUACUACCUCA, 0.205 ± 0.042.
In the case of GGAGACCAUACUAUACAACCAACUACCUCA, the “pre-steady-state target cleavage rate” value was 0.0989 ± 0.011.
For GCUCUCGAUUCUAUACAACCUACUACCUCA the value was 2.09 ± 0.12.
On to GCUCUGGAUACUAUACAACCUACUUCCUGA, for which the “pre-steady-state target cleavage rate” value amounted to 0.346 ± 0.057.
GGAGACCUAUGUAUACAACCUAGUACCUCA: the “pre-steady-state target cleavage rate” value was 0.0423 ± 0.0077.
On to GGAGACCAUACUAUACAACCUACUACGAGA, for which the “pre-steady-state target cleavage rate” value was found to be 0.355 ± 0.068.
For GGUCUGGUAUACUAUACAACCUACUACCUCA the value was 1.69 ± 0.091; for GGUCUGGAUACUAUACAUCGUACUACCUCA, 0.461 ± 0.037.
For GGAGACGAUACUAUACAACCUACUUCGUCA the value was 0.15 ± 0.041; for GGAGACCUUACAAUACAACCUACAACCUCA, 0.054 ± 0.011; for GGAGACCUAUGUAUACAACCUAUUACCUCA, 0.0261 ± 0.005.
Take GGACUGCAUACUAUACAACCUUCUACCUCA: the “pre-steady-state target cleavage rate” value came out at 0.58 ± 0.041.
For GGACUGCAUACUAUACAACCUACUACCACA the value was 0.519 ± 0.066; for GGUCUGGAUACUAUUACAACCUACUACCUCA, 1.74 ± 0.12.
For GGAGACGAUACUAUUCUACCUACUACCUCA the value was 0.89 ± 0.079; for GGAGACGAUACAAUACAACCUUCUACCUCA, 0.453 ± 0.033.
For GGAGACCUAUGAUAUGUACCUACUACUUCA the value was below 0.0001; for GGAGACCUUAUUAUACAACCUACUACCUCA, 1.46 ± 0.13.
As for GGACUGGAUACUAUUCAACCUACUUCCUCA, the “pre-steady-state target cleavage rate” value was 0.00677 ± 0.0021.
For GCUCGGAUACUAUACAACCUACUACCUCA the value was 1.61 ± 0.12.
In the case of GGAGACCAUACUAUAGAACCUACUACCACA, the “pre-steady-state target cleavage rate” value amounted to 0.335 ± 0.071.
For GGAGACGAUACUAUACAACGAACUACCUCA the value was 0.023 ± 0.0031.
For GGAGACCUUACUAUACAGCCUACUACCUCA the value was 0.421 ± 0.023; for GGUCUGGAUACUAUACAACCUACUACAUCA, 0.527 ± 0.043.
For GCUCUGGAUAGUAUACAUCCUACUACCUCA the value was 1.18 ± 0.065; for GGACUGGAUACUAUUCAUCCUACUACCUCA, 1.19 ± 0.089.
On to GCUCUGGAUACUAUACAAGCUACUACCUCA, for which the “pre-steady-state target cleavage rate” value was determined as 1.4 ± 0.06.
